According to the supplement of paper PMC12230231:
± gives the standard deviation of the averaged measurements. Restriction of a single-cycle SIVsab GFP reporter by TRIM5α v1-loop variants in CRFK cells. Human variants: read share among cells still uninfected after two challenges over input, higher = gained restriction. Rhesus variants: share among infected cells over input, higher = lost restriction. Reporter dose not given per row. No active / inactive call per row; the paper calls a change when both replicates lie above its controls (mean + 2 SD of stop or wild-type variants, or the top frameshift score). Residues outside the varied loop are taken from Swiss-Prot. The paper reads the human single-substitution scores as noise; they and the rhesus combinations repeat poorly (rank correlation 0.3 to 0.4), indel scores repeat only for the top variants, rhesus substitutions well (0.9).

Each sequence was assayed on SIVsab (simian immunodeficiency virus of sabaeus monkeys), single-cycle GFP reporter, in CRFK cells (assay: enrichment among infected cells over input (fold); higher = weaker restriction). Conditions: library: human / rhesus combinations.
Protocol: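 Pools of CRFK cells expressing variants of the TRIM5α v1 loop were challenged with the single-cycle reporter, sorted by GFP and sequenced; mean of two replicates.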
With “MASGILLNVKEEVTCPICLELLTEPLSLHCGHSFCQACITANHKKSMLYKEGERSCPVCRISYQPENIQPNRHVANIVEKLREVKLSPEEGQKVDHCARHGEKLLLFCQEDSKVICWLCERSQEHRGHHTFLMEEVAQEYHVKLQTALEMLRQKQQEAEKLEADIREEKASWKIQIDYDKTNVSADFEQLREILDWEESNELQNLEKEEEDILKSLTKSETEMVQQTQYMRELISELEHRLQGSMMDLLQGVDGIIKRIENMTLKKPKTFHKNQRRVFRAPDLKGMLDMFRELTDARRYWVDVTLAPNNISHAVIAEDKRQVSSRNPQIMYGAPGTRYTFPSFVNFNYCTGVLGSQSITSGKHYWEVDVSKKSAWILGVCAGFQSDAMYNIEQNENYQPKYGYWVIGLQEGVKYSVFQDGSSHTPFAPFIVPLSVIICPDRVGVFVDYEACTVSFFNITNHGFLIYKFSQCSFSKPVFPYLNPRKCTVPMTLCSPSS [rhesus TRIM5α, 332-344 = GAPGTRYTFPSFV]” the enrichment was 2.26 ± 0.99.
In the case of “MASGILLNVKEEVTCPICLELLTEPLSLHCGHSFCQACITANHKKSMLYKEGERSCPVCRISYQPENIQPNRHVANIVEKLREVKLSPEEGQKVDHCARHGEKLLLFCQEDSKVICWLCERSQEHRGHHTFLMEEVAQEYHVKLQTALEMLRQKQQEAEKLEADIREEKASWKIQIDYDKTNVSADFEQLREILDWEESNELQNLEKEEEDILKSLTKSETEMVQQTQYMRELISELEHRLQGSMMDLLQGVDGIIKRIENMTLKKPKTFHKNQRRVFRAPDLKGMLDMFRELTDARRYWVDVTLAPNNISHAVIAEDKRQVSSRNPQIMYQARGTRFTFQSFTNFNYCTGVLGSQSITSGKHYWEVDVSKKSAWILGVCAGFQSDAMYNIEQNENYQPKYGYWVIGLQEGVKYSVFQDGSSHTPFAPFIVPLSVIICPDRVGVFVDYEACTVSFFNITNHGFLIYKFSQCSFSKPVFPYLNPRKCTVPMTLCSPSS [rhesus TRIM5α, 332-344 = QARGTRFTFQSFT]”, the enrichment is reported as 1.16 ± 0.087.
“MASGILLNVKEEVTCPICLELLTEPLSLHCGHSFCQACITANHKKSMLYKEGERSCPVCRISYQPENIQPNRHVANIVEKLREVKLSPEEGQKVDHCARHGEKLLLFCQEDSKVICWLCERSQEHRGHHTFLMEEVAQEYHVKLQTALEMLRQKQQEAEKLEADIREEKASWKIQIDYDKTNVSADFEQLREILDWEESNELQNLEKEEEDILKSLTKSETEMVQQTQYMRELISELEHRLQGSMMDLLQGVDGIIKRIENMTLKKPKTFHKNQRRVFRAPDLKGMLDMFRELTDARRYWVDVTLAPNNISHAVIAEDKRQVSSRNPQIMYGAPGTRFTFQSLVNFNYCTGVLGSQSITSGKHYWEVDVSKKSAWILGVCAGFQSDAMYNIEQNENYQPKYGYWVIGLQEGVKYSVFQDGSSHTPFAPFIVPLSVIICPDRVGVFVDYEACTVSFFNITNHGFLIYKFSQCSFSKPVFPYLNPRKCTVPMTLCSPSS [rhesus TRIM5α, 332-344 = GAPGTRFTFQSLV]” showed an enrichment of 1.03 ± 0.23.
Work on “MASGILLNVKEEVTCPICLELLTEPLSLHCGHSFCQACITANHKKSMLYKEGERSCPVCRISYQPENIQPNRHVANIVEKLREVKLSPEEGQKVDHCARHGEKLLLFCQEDSKVICWLCERSQEHRGHHTFLMEEVAQEYHVKLQTALEMLRQKQQEAEKLEADIREEKASWKIQIDYDKTNVSADFEQLREILDWEESNELQNLEKEEEDILKSLTKSETEMVQQTQYMRELISELEHRLQGSMMDLLQGVDGIIKRIENMTLKKPKTFHKNQRRVFRAPDLKGMLDMFRELTDARRYWVDVTLAPNNISHAVIAEDKRQVSSRNPQIMYQARGTRYTFQSLTNFNYCTGVLGSQSITSGKHYWEVDVSKKSAWILGVCAGFQSDAMYNIEQNENYQPKYGYWVIGLQEGVKYSVFQDGSSHTPFAPFIVPLSVIICPDRVGVFVDYEACTVSFFNITNHGFLIYKFSQCSFSKPVFPYLNPRKCTVPMTLCSPSS [rhesus TRIM5α, 332-344 = QARGTRYTFQSLT]” yielded an enrichment of 1 ± 0.051.
“MASGILLNVKEEVTCPICLELLTEPLSLHCGHSFCQACITANHKKSMLYKEGERSCPVCRISYQPENIQPNRHVANIVEKLREVKLSPEEGQKVDHCARHGEKLLLFCQEDSKVICWLCERSQEHRGHHTFLMEEVAQEYHVKLQTALEMLRQKQQEAEKLEADIREEKASWKIQIDYDKTNVSADFEQLREILDWEESNELQNLEKEEEDILKSLTKSETEMVQQTQYMRELISELEHRLQGSMMDLLQGVDGIIKRIENMTLKKPKTFHKNQRRVFRAPDLKGMLDMFRELTDARRYWVDVTLAPNNISHAVIAEDKRQVSSRNPQIMYQARGTLYTFPTFTNFNYCTGVLGSQSITSGKHYWEVDVSKKSAWILGVCAGFQSDAMYNIEQNENYQPKYGYWVIGLQEGVKYSVFQDGSSHTPFAPFIVPLSVIICPDRVGVFVDYEACTVSFFNITNHGFLIYKFSQCSFSKPVFPYLNPRKCTVPMTLCSPSS [rhesus TRIM5α, 332-344 = QARGTLYTFPTFT]” was tested, and the enrichment was 2.68 ± 0.63.
Sequence “MASGILLNVKEEVTCPICLELLTEPLSLHCGHSFCQACITANHKKSMLYKEGERSCPVCRISYQPENIQPNRHVANIVEKLREVKLSPEEGQKVDHCARHGEKLLLFCQEDSKVICWLCERSQEHRGHHTFLMEEVAQEYHVKLQTALEMLRQKQQEAEKLEADIREEKASWKIQIDYDKTNVSADFEQLREILDWEESNELQNLEKEEEDILKSLTKSETEMVQQTQYMRELISELEHRLQGSMMDLLQGVDGIIKRIENMTLKKPKTFHKNQRRVFRAPDLKGMLDMFRELTDARRYWVDVTLAPNNISHAVIAEDKRQVSSRNPQIMYGARGTRYTFPSFTNFNYCTGVLGSQSITSGKHYWEVDVSKKSAWILGVCAGFQSDAMYNIEQNENYQPKYGYWVIGLQEGVKYSVFQDGSSHTPFAPFIVPLSVIICPDRVGVFVDYEACTVSFFNITNHGFLIYKFSQCSFSKPVFPYLNPRKCTVPMTLCSPSS [rhesus TRIM5α, 332-344 = GARGTRYTFPSFT]” has an enrichment of 1.14 ± 0.34.
For “MASGILLNVKEEVTCPICLELLTEPLSLHCGHSFCQACITANHKKSMLYKEGERSCPVCRISYQPENIQPNRHVANIVEKLREVKLSPEEGQKVDHCARHGEKLLLFCQEDSKVICWLCERSQEHRGHHTFLMEEVAQEYHVKLQTALEMLRQKQQEAEKLEADIREEKASWKIQIDYDKTNVSADFEQLREILDWEESNELQNLEKEEEDILKSLTKSETEMVQQTQYMRELISELEHRLQGSMMDLLQGVDGIIKRIENMTLKKPKTFHKNQRRVFRAPDLKGMLDMFRELTDARRYWVDVTLAPNNISHAVIAEDKRQVSSRNPQIMYGAPGTLFTFQSFTNFNYCTGVLGSQSITSGKHYWEVDVSKKSAWILGVCAGFQSDAMYNIEQNENYQPKYGYWVIGLQEGVKYSVFQDGSSHTPFAPFIVPLSVIICPDRVGVFVDYEACTVSFFNITNHGFLIYKFSQCSFSKPVFPYLNPRKCTVPMTLCSPSS [rhesus TRIM5α, 332-344 = GAPGTLFTFQSFT]”, the enrichment was 0.943 ± 0.099.
Work on “MASGILLNVKEEVTCPICLELLTEPLSLHCGHSFCQACITANHKKSMLYKEGERSCPVCRISYQPENIQPNRHVANIVEKLREVKLSPEEGQKVDHCARHGEKLLLFCQEDSKVICWLCERSQEHRGHHTFLMEEVAQEYHVKLQTALEMLRQKQQEAEKLEADIREEKASWKIQIDYDKTNVSADFEQLREILDWEESNELQNLEKEEEDILKSLTKSETEMVQQTQYMRELISELEHRLQGSMMDLLQGVDGIIKRIENMTLKKPKTFHKNQRRVFRAPDLKGMLDMFRELTDARRYWVDVTLAPNNISHAVIAEDKRQVSSRNPQIMYGARGTRFPSLVNFNYCTGVLGSQSITSGKHYWEVDVSKKSAWILGVCAGFQSDAMYNIEQNENYQPKYGYWVIGLQEGVKYSVFQDGSSHTPFAPFIVPLSVIICPDRVGVFVDYEACTVSFFNITNHGFLIYKFSQCSFSKPVFPYLNPRKCTVPMTLCSPSS [rhesus TRIM5α, 332-344 = GARGTRFPSLV]” yielded an enrichment of 1.56 ± 0.42.
